Laboratory results reported in a collection of fitness landscapes (doi:10.1016/j.celrep.2020.107928).
Whole data set: some 81,000 sequences, median “one-hybrid fitness for binding parS DNA” near -0.17, cut for the highest 2% near 0.51. The list shows a part of the results.

B1: Caulobacter ParB omega fusion; a variant is named by its letters at X, in order, B8GW30 (parent)
chain: MESVVVGEPGMSEGRRGLGRGLSALLGEVDAAPAQAPGEQLGGSREAPIEILQRNPDQPRRTFREEDLEDLSNSIREKGVLQPILVRPSPDTAGEYQIVAGERAWRAAQRAGLKTVPIMVRELDDLAVLEIGIIENVQRADLNVLEEALSYKVLMEKFERTQENIAQTIGKSXSHVANXMRLLXLPDEVQSYLVSGELTAXHARAIAAAADPVALAKQIIEGGLSVRETEALARKAPNLSAGKSKGGRPPRVKDTDTQALESDLSSVLGLDVSIDHRGSTGTLTITYATLEQLDDLCNRLTRGI

Variants of: B1
Test: one-hybrid fitness for binding parS DNA (scaled: cognate 1, non-cognate 0); higher = stronger binding
Conditions: with parS DNA site
Outline: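 Fitness is the rescaled log change in variant-to-wild-type read ratio, measured by Illumina sequencing of plasmids before and after bacterial one-hybrid selection. The scale puts cognate at 1 and non-cognate at 0. Selection of Caulobacter ParB libraries, four specificity codons randomised, took place in E. coli USO with a HIS3 reporter, site 19 bp from the promoter, over 48 hours at 37°C on M9-minus-histidine with 0.1 mM IPTG and 5 mM 3-AT.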

Variant	one-hybrid fitness for binding parS DNA
TYNQ	≤ 0.2
VYRL	≤ 0.2
MHLM	≤ 0.2
KNIR	≤ 0.2
HLAS	≤ 0.2
IIHM	≤ 0.2
STEV	≤ 0.2
FTIG	≤ 0.2
QLQM	≤ 0.2
QVNS	≤ 0.2
YQFS	≤ 0.2
HQYR	≤ 0.2
ESHA	≤ 0.2
FFPS	≤ 0.2
VPPR	≤ 0.2
RTIW	0.211
YRTS	0.304
CDHT	≤ 0.2
QDRD	≤ 0.2
VDEA	≤ 0.2
TWTT	≤ 0.2
QNWW	≤ 0.2
RIIL	≤ 0.2
CTYA	≤ 0.2

Variant	one-hybrid fitness for binding parS DNA
PSMC	≤ 0.2
KGRA	≤ 0.2
CLQG	≤ 0.2
VRLT	≤ 0.2
NMSF	≤ 0.2
VKME	≤ 0.2
CTFA	≤ 0.2
FCCG	≤ 0.2
RYQC	0.898
NGDV	≤ 0.2
NESY	≤ 0.2
ITWV	≤ 0.2
FTML	≤ 0.2
VHTW	≤ 0.2
RGGA	0.285
FKIV	≤ 0.2
QLAQ	≤ 0.2
SWKQ	≤ 0.2
QSNI	≤ 0.2
YHSP	≤ 0.2
QFYT	≤ 0.2
PSTV	≤ 0.2
STKD	≤ 0.2
FVES	≤ 0.2

Variant	one-hybrid fitness for binding parS DNA
DGGD	≤ 0.2
DKKW	≤ 0.2
DGNS	≤ 0.2
DCGS	≤ 0.2
SVKV	≤ 0.2
APPK	≤ 0.2
KTEC	≤ 0.2
PTVQ	≤ 0.2
VASC	≤ 0.2
NFRR	≤ 0.2
GYKC	≤ 0.2
FHTY	≤ 0.2
HALY	≤ 0.2
YMAT	≤ 0.2
RDTQ	≤ 0.2
KRMP	≤ 0.2
MERN	≤ 0.2
LSDM	≤ 0.2
DYVG	≤ 0.2
AFKG	≤ 0.2
WAHC	≤ 0.2
LSYS	≤ 0.2
SMTT	≤ 0.2
SFTG	≤ 0.2

Variant	one-hybrid fitness for binding parS DNA
ENPL	≤ 0.2
HVLW	≤ 0.2
ALWR	≤ 0.2
QHDM	≤ 0.2
RVCR	≤ 0.2
AVMR	≤ 0.2
FRLY	≤ 0.2
YIYC	≤ 0.2
TPLK	≤ 0.2
STPA	≤ 0.2
GPKC	≤ 0.2
KRND	≤ 0.2
MPQC	≤ 0.2
RPPM	≤ 0.2
HKSD	≤ 0.2
QYHD	≤ 0.2
HHPD	≤ 0.2
MKCR	≤ 0.2
KWGT	≤ 0.2
TNLG	≤ 0.2
QRGH	≤ 0.2
PRKA	≤ 0.2
NTMC	≤ 0.2
DTAT	≤ 0.2

Variant	one-hybrid fitness for binding parS DNA
YRME	≤ 0.2
RSQT	0.874
SHVR	≤ 0.2
KHGT	≤ 0.2
SQFA	≤ 0.2
RFKD	≤ 0.2
TVHV	≤ 0.2
FGRY	≤ 0.2
QFTY	≤ 0.2
PWNN	≤ 0.2
QRFA	≤ 0.2
NYGS	≤ 0.2
YHHR	≤ 0.2
RERN	≤ 0.2
YMCW	≤ 0.2
YTWR	≤ 0.2
RNTA	0.473
TTSI	≤ 0.2
RNDT	0.562
DPHA	≤ 0.2
PVAR	≤ 0.2
YWTC	≤ 0.2
AYRV	≤ 0.2
QEFS	≤ 0.2

Variant	one-hybrid fitness for binding parS DNA
RTYN	0.424
KSGG	≤ 0.2
MTEI	≤ 0.2
PSKC	≤ 0.2
QRMK	≤ 0.2
CNRC	≤ 0.2
TNVQ	≤ 0.2
KYYW	≤ 0.2
LILS	≤ 0.2
YKGV	≤ 0.2
FGVA	≤ 0.2
PQDS	≤ 0.2
SYDY	≤ 0.2
FNTL	≤ 0.2
HNRR	≤ 0.2
THKV	≤ 0.2
CRLR	≤ 0.2
QDNV	≤ 0.2
RLNW	0.211
CCGS	≤ 0.2
PRWF	≤ 0.2
AQNC	≤ 0.2
TVRP	≤ 0.2
EELW	≤ 0.2

Variant	one-hybrid fitness for binding parS DNA
RHWV	≤ 0.2
YPLY	≤ 0.2
HRRT	0.208
QVFK	≤ 0.2
GGWM	≤ 0.2
QAYD	≤ 0.2
QHRA	≤ 0.2
WTPV	≤ 0.2
LISC	≤ 0.2
KQRV	≤ 0.2
RPSC	≤ 0.2
TIDG	≤ 0.2
MQVR	≤ 0.2
SHKA	≤ 0.2
TCEY	≤ 0.2
PWKQ	≤ 0.2
QHHY	≤ 0.2
LMST	≤ 0.2
VSVK	≤ 0.2
QLMG	≤ 0.2
CPTV	≤ 0.2
VPVR	≤ 0.2
KRKP	≤ 0.2
RVQM	0.278

Variant	one-hybrid fitness for binding parS DNA
AQYA	≤ 0.2
NADQ	≤ 0.2
RSGI	≤ 0.2
KCNT	≤ 0.2
LGHP	≤ 0.2
RPKI	≤ 0.2
FGCR	≤ 0.2
QSDD	≤ 0.2
TRSK	≤ 0.2
QVGA	≤ 0.2
QRYL	≤ 0.2
QLCS	≤ 0.2
KLNA	≤ 0.2
LWSM	≤ 0.2
ENRH	≤ 0.2
ESVW	≤ 0.2
DWKT	≤ 0.2
KPHW	≤ 0.2
GISS	≤ 0.2
ACST	≤ 0.2
SEEF	≤ 0.2
KANM	≤ 0.2
HNPF	≤ 0.2
SCYG	≤ 0.2

Variant	one-hybrid fitness for binding parS DNA
SVLP	≤ 0.2
NFLV	≤ 0.2
HPTD	≤ 0.2
STPW	≤ 0.2
PTKE	≤ 0.2
IGQF	≤ 0.2
CVLA	≤ 0.2
IRQI	≤ 0.2
MGFS	≤ 0.2
KGCS	≤ 0.2
PFCL	≤ 0.2
NWAC	≤ 0.2
HEST	≤ 0.2
DGPS	≤ 0.2
TYTW	≤ 0.2
QDEK	≤ 0.2
EEGR	≤ 0.2
RAAF	0.242
LTRV	≤ 0.2
MAFR	≤ 0.2
LFTF	≤ 0.2
MGSS	≤ 0.2
RYTH	≤ 0.2
MGMS	≤ 0.2

Variant	one-hybrid fitness for binding parS DNA
QHRW	≤ 0.2
TLRW	≤ 0.2
MTEC	≤ 0.2
NTCF	≤ 0.2
PELE	≤ 0.2
QTKM	≤ 0.2
NYRN	≤ 0.2
VDEC	≤ 0.2
ISYS	≤ 0.2
PSFQ	≤ 0.2
WFNI	≤ 0.2
CCHC	≤ 0.2
PSMF	≤ 0.2
TWQF	≤ 0.2
CPGQ	≤ 0.2
HSKV	≤ 0.2
GCTV	≤ 0.2
RMGA	0.573
WLRV	≤ 0.2
AGGG	≤ 0.2
LANW	≤ 0.2
KRFA	≤ 0.2
GAHH	≤ 0.2
SDEF	≤ 0.2

Variant	one-hybrid fitness for binding parS DNA
PDCM	≤ 0.2
DRKY	≤ 0.2
NVQF	≤ 0.2
GHRW	≤ 0.2
HDPA	≤ 0.2
HYPI	≤ 0.2
WTKK	≤ 0.2
MYHP	≤ 0.2
GNRM	≤ 0.2
TRCV	≤ 0.2
TDHH	≤ 0.2
PEQR	≤ 0.2
QWTT	≤ 0.2
SHTL	≤ 0.2
QMCD	≤ 0.2
PILA	≤ 0.2
MRAC	≤ 0.2
SGHR	≤ 0.2
LPDE	≤ 0.2
NDIS	≤ 0.2
YKRR	≤ 0.2
DTAA	≤ 0.2
FAIS	≤ 0.2
MCPC	≤ 0.2

Variant	one-hybrid fitness for binding parS DNA
MQRT	≤ 0.2
RSPH	≤ 0.2
HSIN	≤ 0.2
DQVT	≤ 0.2
FTTV	≤ 0.2
HGRY	≤ 0.2
AWQC	≤ 0.2
FNNT	≤ 0.2
NCML	≤ 0.2
QTPN	≤ 0.2
LCYL	≤ 0.2
LVDL	≤ 0.2
SDVN	≤ 0.2
PTPG	≤ 0.2
NSRQ	≤ 0.2
PDDH	≤ 0.2
AYRG	≤ 0.2
QTQR	≤ 0.2
QMIS	≤ 0.2
MTLW	≤ 0.2
PSHS	≤ 0.2
YFPS	≤ 0.2
AHQS	≤ 0.2
GRAC	≤ 0.2

Variant	one-hybrid fitness for binding parS DNA
NALD	≤ 0.2
QCKE	≤ 0.2
RLLR	≤ 0.2
RATW	0.213
RMPS	0.889
SERS	≤ 0.2
CDYG	≤ 0.2
TFIR	≤ 0.2
CTLC	≤ 0.2
CRHW	≤ 0.2
LDYT	≤ 0.2
IRVV	≤ 0.2
TVTC	≤ 0.2
RKWP	≤ 0.2
GALC	≤ 0.2
NVKF	≤ 0.2
CLSD	≤ 0.2
PYHE	≤ 0.2
